# Measurements as given in PubChem BioAssay AID493208 (National Center for Advancing Translational Sciences (NCATS), 2011).
# The campaign covered roughly 44,000 compounds. About 340 (0.77%) were called active. About 5% were inconclusive and are not listed. Calls follow the shape of the dose curve; as a rule, active = well fitted inhibition curve with a large enough effect; inconclusive = small, poorly fitted or top-dose-only effect; inactive = flat fitted curve, though single readings scatter. The list shows a part of the results.
# Test: Acumen qHTS Assay for Inhibitors of the mTORC1 Signaling Pathway in MEF (Tsc2-/-, p53-/-) Cells: Sytravon; also: nearly all actives have a fitted effect of over 50% in size;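 as to activity change, negative = inhibition: plate controls were DMSO for no effect and rapamycin for full effect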
# Settings: phospho-rpS6 immunofluorescence/PI, 24 h; series mostly up to 38.3 µM; activity change, negative = inhibition: at the top concentration
# Outline: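 Tsc2-/-, p53-/- mouse embryonic fibroblasts (empty-vector line) exposed to compound 24 hrs at 37 C, fixed, immunostained for phospho-rpS6 and counterstained with propidium iodide. Acumen laser scanning gives % positive cells from Alexa 488/PI ratio, thresholded using 7.5 nM rapamycin; PI count gives viability.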
# Potency is read from the fitted curve at half-maximal effect.
Compound,"activity change, negative = inhibition",Potency
CCOC(=O)c1cnc(NCc2ccccc2OC)c2ccccc12,inactive: -0.627%,–
COc1cccc2sc(=NC(=O)c3ccc(S(=O)(=O)N4CCCCC4)cc3)n(C)c12,inactive: -1.91%,–
COc1ccc(S(=O)(=O)N2CCCCC2)cc1C(=O)Nc1cccc(C(F)(F)F)c1,inactive: 1.36%,–
COc1ccccc1Nc1cc(C(=O)NC2CCCC2)c2ccccc2n1,inactive: 0.873%,–
CCN(CC)C(=O)c1sc2c(c1C)c(=O)n(Cc1ccccc1)c(=O)n2Cc1ccc(Cl)cc1,inactive: 0.231%,–
O=C(CCS(=O)(=O)c1nc(-c2ccc3c(c2)OCO3)cc(C(F)(F)F)n1)Nc1ccccc1F,inactive: -2.25%,–
CCN(C(=O)CCn1cnc2onc(-c3ccc(F)cc3)c2c1=O)c1ccc(OC)cc1,inactive: -0.705%,–
COc1ccc(Nc2nc3ccccc3c3nnc(C)n23)cc1Cl,inactive: 2.79%,–
CCc1cccc(-n2nnc(-c3nc(-c4ccccc4Cl)no3)c2N)c1,inactive: -3.04%,–
Cc1ccc(NC(=O)CSc2cn(CC(=O)N3CCCCCC3)c3ccccc23)cc1,inactive: 0.816%,–
Cc1cccc(N2CCN(C(=O)c3cnn(-c4cccc(Cl)c4C)c3C3CCNCC3)CC2)c1C,–,active: 16.5 µM
Cc1cc(C)c(NC(=O)Cn2c(=O)n(Cc3ccco3)c(=O)c3ccc(C(=O)NC4CCCC4)cc32)c(C)c1,inactive: -6.7%,–
O=C(NCC(c1cccnc1)N1CCc2ccccc2C1)C(=O)Nc1ccc(Cl)cc1 (stereo unspecified),inactive: 3.36%,–
Cc1ccc(-c2noc(CSc3nnc(Cc4ccccc4)n3-c3cccc(C)c3)n2)cc1,inactive: -11.9%,–
Cn1nnc2c(NCCc3ccccc3)ncnc21,inactive: -17%,–
CC(C)c1ccc(NC(=O)c2cccc3c2C(=O)N(C2CCCCC2)C3)cc1,inactive: 4.46%,–
CCCc1nc2ccccc2n2c(-c3ccc(C)cc3)c3c(=O)n(C)c(=O)n(C)c3c12,inactive: -0.584%,–
Cc1ccc2c(c1)N(CC(=O)NCc1ccccc1Br)C(=O)c1cccnc1O2,inactive: 1.25%,–
CCOCCCNC(=O)C(c1ccc(C)cc1)N(Cc1cccs1)C(=O)c1ccc(NC(C)=O)cc1 (stereo unspecified),inactive: -1.93%,–
CC(=O)c1cccc(NC(=O)c2c(N3CCCC3=O)c3cc(F)ccc3n2C)c1,inactive: 0%,–
COc1ccccc1NC(=O)c1c(NC(=O)c2ccco2)sc2c1CCC(C(C)(C)C)C2 (stereo unspecified),inactive: -8.73%,–
CCSc1ncc(Cl)c(C(=O)Nc2c(C(=O)c3ccc(C)c(F)c3)oc3ccccc23)n1,inactive: 0%,–
COc1cc(/C=C(\C#N)C(=O)Nc2ccc(C)cc2)ccc1OCc1cc(=O)n2nc(C)sc2n1,inactive: -1.02%,–
CCc1cccc(NS(=O)(=O)c2c(C)nc3sc(CC)nn3c2=O)c1,inactive: -0.647%,–

Compound,"activity change, negative = inhibition",Potency
COc1ccc(N2CC(NC(=O)c3cc4ccccc4o3)CC2=O)cc1OC (stereo unspecified),inactive: -2.16%,–
Cc1ccc(NC(=O)Cn2c(=O)n(CCc3ccccc3)c(=O)c3c4c(sc32)CCCC4)c(C)c1,inactive: -4.54%,–
CCOC(=O)c1cc(NC(=O)c2ccc(C)cc2)c(=O)n2c1oc1ccc(Cl)cc12,inactive: 7.5%,–
O=c1oc2ccc(Br)cc2cc1-c1csc(-c2ccccc2)n1,inactive: 0.623%,–
Cc1ccc(N2CC(NC(=O)c3ccc(S(=O)(=O)N4CCCCC4)cc3)CC2=O)cc1 (stereo unspecified),inactive: -5.44%,–
COC(=O)c1ccc(NC(=O)c2cc(=O)c3ccc(C)cc3o2)cc1,inactive: -0.709%,–
CN(C(=O)C1=CC(c2ccc3c(c2)OCO3)=NS(=O)(=O)N1C)c1ccccc1,inactive: -8.33%,–
CCCC(=O)Nc1nnc2n1CCS2,inactive: -14.6%,–
O=C(CSc1nc2c(c(=O)[nH]1)CN(Cc1ccc3c(c1)OCO3)CC2)Nc1cccc(Cl)c1,inactive: -3.49%,–
Cc1nc2c(c(C)nn2-c2ccccc2)c(C)c1CCC(=O)NCCc1ccccc1,inactive: -0.812%,–
Cn1nnc2c(NCc3ccccc3Cl)ncnc21,inactive: -8.2%,–
CCOc1ccc(Oc2nc(NC)nc(N3CCOCC3)n2)nn1,inactive: -8.21%,–
CCOC(=O)c1noc2ncnc(N3CCC(C)CC3)c12,inactive: -8.47%,–
COc1ccc(CC(=O)NCc2nc3cccnc3n2Cc2ccc(C)cc2)cc1OC,inactive: 2.4%,–
Cc1cccc(Cn2cc3c(=O)n(CC(=O)Nc4ccc(C)c(F)c4)nc-3c3cc(F)ccc32)c1,inactive: -10.5%,–
COC(=O)c1cnc(N2CCN(c3ccccc3F)CC2)c2ccccc12,inactive: -19.8%,–
Cc1ccc(NC(=O)C2CCN(c3nc4ccccc4[nH]3)CC2)c(C)c1,inactive: 6.5%,–
COc1ccc(OC)c(NC(=O)c2c(NCc3cccs3)sc3c2CCCC3)c1,inactive: -6.09%,–
CCc1ccccc1NC(=O)c1cc(S(=O)(=O)N2CCCC2)cn1C,inactive: -3.37%,–
Cc1cccc(N2CCN(C(=O)CCc3c(C)nc4ncnn4c3C)CC2)c1C,inactive: 1.67%,–
COCCN1C(=O)c2[nH]nc(-c3cc(C)ccc3O)c2C1c1ccc(C(C)C)cc1 (stereo unspecified),inactive: -5.53%,–
COc1ccccc1NC(=O)NCCN1CCN(c2cccc(Cl)c2)CC1,inactive: -4.84%,–
CC(C)c1cccc(C(C)C)c1NC1=NS(=O)(=O)c2ccccc21,inactive: 5.25%,–
O=C(Cc1ccccc1)Nc1cccc(-c2cn3cccnc3n2)c1,inactive: -2.12%,–

Compound,"activity change, negative = inhibition",Potency
CN(CC(=O)Nc1cccc(C(F)(F)F)c1)S(=O)(=O)c1cccs1,inactive: 0.259%,–
Cc1ccc(CNS(=O)(=O)c2cc3c(cc2C)NC(=O)CO3)cc1,inactive: 5.23%,–
COC(=O)C(C)Sc1ncnc2c1c(-c1ccccc1)cn2-c1ccc(F)cc1 (stereo unspecified),inactive: -4.29%,–
CCOc1ccc(S(=O)(=O)Nc2ccc3c(c2)N(C(C)=O)CCC3)cc1,inactive: 10.6%,–
Cc1cccc(C)c1-n1ncc(C(=O)N2CCN(c3ccccc3)CC2)c1C1CCN(C(=O)OC(C)(C)C)CC1,inactive: -12.6%,–
O=C(Cn1c(-c2cccs2)cc2ccccc21)NCCc1ccc(Cl)cc1,inactive: -11.4%,–
CCOc1ccccc1NC(=O)c1cc2c(=O)oc3ccccc3c2s1,inactive: -7.88%,–
O=C(c1ccc(CSc2nc3ccncc3n2Cc2cccc(F)c2)cc1)N1CCCCCC1,inactive: -1.14%,–
CC1CCCCN1c1nnc(NC(=O)Nc2ccccc2F)s1 (stereo unspecified),inactive: -1.33%,–
Cc1ccc(/C=C/c2nc3ccccc3[nH]2)cc1,inactive: 14.1%,–
CC(C)COc1ccc(C(=O)N(Cc2ccc(N(C)C)cc2)Cc2ccco2)cc1,inactive: -5.02%,–
CCc1ccc(NC(=O)CCS(=O)(=O)c2ccc3c(c2)n(C)c(=O)c(=O)n3C)cc1,inactive: -0.336%,–
CCC(Cn1nnc2ccccc2c1=O)NC(=O)Nc1ccc(C)c(C)c1 (stereo unspecified),inactive: 1.78%,–
COCCCNC(=O)CSc1nc2cc(OC)c(OC)cc2c2nc(-c3ccccc3)nn12,inactive: -0.464%,–
CS(=O)(=O)CCC(C(=O)Nc1cccc(C(F)(F)F)c1)N1Cc2ccccc2C1=O (stereo unspecified),inactive: -0.535%,–
CC1CCCN(C(=O)c2cc3c(Cl)nc4ccccc4c3s2)C1 (stereo unspecified),inactive: -1.32%,–
O=C(c1ccco1)c1cn(CCOc2ccc(F)cc2)c2ccccc12,inactive: -6.28%,–
Cc1ccc(OCc2nc3ccccc3n2CCOc2ccc(Cl)cc2)cc1,inactive: 0.48%,–
Cc1ccc(-c2nc(SCC(=O)NCc3ccco3)c3c(=O)n(C)c(=O)n(C)c3n2)cc1,inactive: 5.73%,–
Cc1ccc(Nc2nnc(-c3ccc(C)c(S(=O)(=O)NCc4nc5ccccc5[nH]4)c3)c3ccccc23)cc1,inactive: -19.5%,–
CC(C)c1ccc(NC(=O)Cn2c(=O)n(CCc3ccccc3)c(=O)c3ccccc32)cc1,inactive: -22.5%,–
Cc1ccc(C(=O)Nc2cccc(-c3nc4ccccc4o3)c2)c(Cl)c1,inactive: 2.39%,–
Cc1ccc(-c2nnc(Nc3cccc(O)c3)c3ccccc23)cc1S(=O)(=O)N1CCN(C)CC1,inactive: -19.5%,–
Cc1nc2nc(SCC(=O)NCc3ccccc3Cl)nn2c(C)c1Cc1ccccc1,inactive: 0.519%,–

Compound,"activity change, negative = inhibition",Potency
CCc1ccc(NC(=O)C(CC)n2c(=O)c(C(F)(F)F)nc3ccccc32)cc1 (stereo unspecified),inactive: -0.454%,–
Cc1ccc(NC(=O)CC(C)S(=O)(=O)c2ccc3c(c2)NC(=O)CO3)cc1Cl (stereo unspecified),inactive: 0.0361%,–
CCc1nc(-c2cc(S(=O)(=O)N3CCN(c4ccccc4OC)CC3)ccc2OC)no1,inactive: -9.18%,–
CCOC(=O)Cn1c(=O)c2c(nc3n2CCN3c2ccc(CC)cc2)n(C)c1=O,inactive: -7.72%,–
COc1cc(Cl)c(C)cc1Nc1ncnc2c1nc1n2CCCC1,inactive: -4.09%,–
COc1ccc(Cl)cc1NC(=O)CN1C(=O)COc2ccc(S(=O)(=O)NC3CCCC3)cc21,inactive: -12.3%,–
COc1ccc(-c2cc(C(=O)Nc3c(C)nn(Cc4ccc(C)cc4)c3C)no2)cc1OC,inactive: -1.82%,–
Cc1ccc(-c2nnc(Nc3ccc(O)cc3)c3ccccc23)cc1S(=O)(=O)N1CCOCC1,inactive: 6.75%,–
COc1cccc(NS(=O)(=O)c2ccc(-c3cc(C)no3)s2)c1,inactive: -11.5%,–
CCOC(=O)c1cc(-c2ccccc2)n(-c2cccc(C(=O)Nc3ccc(OCC)cc3)c2)c1C,inactive: -2.71%,–
Cc1ccc(Nc2nn3c(=O)c4cc5c(cc4nc3s2)OCO5)cc1Cl,inactive: 0.156%,–
CN(C(=O)CSc1cn(CC(=O)N2CCOCC2)c2ccccc12)c1ccccc1,inactive: 1.95%,–
CCCCN(CC)CCNC(=O)Cn1cc2c(n1)-c1c(oc(C(=O)N3CCCC3)c1C)CC2,inactive: 1.36%,–
COc1cccc(Cn2c(=O)n(Cc3ccco3)c(=O)c3oc4ccccc4c32)c1,inactive: -1.88%,–
CC(=O)N1CCCc2cc(S(=O)(=O)N3CCC(C(=O)NCc4cccc(C)c4)CC3)ccc21,inactive: -4.75%,–
CCCOc1cccc(C(=O)N(Cc2ccc(C)o2)C2CCS(=O)(=O)C2)c1 (stereo unspecified),inactive: -0.631%,–
COCCNc1sc(S(=O)(=O)c2ccc(C)cc2)nc1S(=O)(=O)c1ccc(C)cc1,inactive: -9.99%,–
CC(=O)Nc1ccc(NC(=O)CSc2nccn2C)cc1,inactive: -0.266%,–
COc1cc(NC(=O)CC2C(=O)N(c3cccc(C)c3)C(=O)N2Cc2ccc(F)cc2)cc(OC)c1 (stereo unspecified),inactive: -0.798%,–
CCOC(=O)c1cc2c(=O)n3ccccc3nc2n(CC(C)C)c1=NC(=O)c1c(-c2c(F)cccc2Cl)noc1C,inactive: -4.79%,–
CCCN(C(=O)c1noc2c1COc1ccc(C)cc1-2)c1ccc(Cl)c(Cl)c1,inactive: 0%,–
COC(=O)c1ccccc1NC(=O)c1c(NC(=O)c2ccco2)sc2c1CCC(C(C)(C)C)C2 (stereo unspecified),inactive: 12%,–
CC(=O)c1cccc(NC(=O)c2sc(-n3nc(C)c(Cc4ccc5c(c4)OCO5)c3C)nc2C)c1,inactive: -17.6%,–
CCOc1ccc(-c2cccc(NS(=O)(=O)c3c(C)cc(C)cc3C)c2)nn1,inactive: -4.9%,–
